Measurements published in article PMC4336329 (PLoS ONE, 2015).
About 14,000 (4.5%) of roughly 310,000 compounds showed an effect of 50% or more. The effect is printed as a negative number. The list shows a part of the results.

target: human ether-à-go-go-related gene (hERG) potassium channel (human, UniProt Q12809); test: primary screen, population patch clamp on CHO cells stably expressing hERG
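Further: peak tail current of the secondary pulse compared with the same well before compound.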

human ether-à-go-go-related gene (hERG) potassium channel, sequence (Q12809 whole entry, looked up): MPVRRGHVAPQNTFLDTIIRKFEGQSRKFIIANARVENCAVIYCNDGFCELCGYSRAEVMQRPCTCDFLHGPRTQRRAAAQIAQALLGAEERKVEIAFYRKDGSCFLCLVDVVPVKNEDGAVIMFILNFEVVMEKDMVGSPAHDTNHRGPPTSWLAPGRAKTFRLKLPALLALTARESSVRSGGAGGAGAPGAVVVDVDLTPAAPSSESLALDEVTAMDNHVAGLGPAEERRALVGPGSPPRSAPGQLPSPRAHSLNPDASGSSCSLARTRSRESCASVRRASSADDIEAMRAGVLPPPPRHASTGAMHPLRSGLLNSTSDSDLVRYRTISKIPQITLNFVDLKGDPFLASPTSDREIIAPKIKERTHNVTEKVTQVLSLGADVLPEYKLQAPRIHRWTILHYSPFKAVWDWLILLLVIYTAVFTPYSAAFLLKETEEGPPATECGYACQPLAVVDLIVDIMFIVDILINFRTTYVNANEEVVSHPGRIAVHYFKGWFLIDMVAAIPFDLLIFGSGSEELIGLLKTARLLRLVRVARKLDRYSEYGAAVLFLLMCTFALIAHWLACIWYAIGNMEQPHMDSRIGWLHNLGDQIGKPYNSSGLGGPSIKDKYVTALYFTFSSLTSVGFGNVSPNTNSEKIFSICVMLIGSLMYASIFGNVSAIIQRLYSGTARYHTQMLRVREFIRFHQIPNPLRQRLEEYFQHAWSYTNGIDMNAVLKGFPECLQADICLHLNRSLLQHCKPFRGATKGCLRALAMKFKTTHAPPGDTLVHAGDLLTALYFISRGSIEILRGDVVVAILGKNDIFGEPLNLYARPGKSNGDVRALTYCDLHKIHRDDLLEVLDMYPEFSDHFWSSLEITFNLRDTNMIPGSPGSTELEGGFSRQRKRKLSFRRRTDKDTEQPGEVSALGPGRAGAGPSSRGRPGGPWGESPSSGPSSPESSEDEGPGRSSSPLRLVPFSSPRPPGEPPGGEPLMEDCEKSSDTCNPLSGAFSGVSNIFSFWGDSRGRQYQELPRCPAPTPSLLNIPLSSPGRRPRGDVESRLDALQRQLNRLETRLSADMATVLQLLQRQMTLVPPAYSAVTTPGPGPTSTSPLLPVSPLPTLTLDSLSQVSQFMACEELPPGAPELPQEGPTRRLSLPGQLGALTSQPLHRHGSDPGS

Compound	hERG current change (%, negative = inhibition) at 10uM [%]
CCCc1n[nH]c(=O)c2c1nnn2Cc1ccccc1F	6.71
O=C1N[C@@H](Cc2cn(S(=O)(=O)c3ccccc3)c3ccccc23)C(=O)N[C@H]1Cc1ccccc1	14.9
Cc1nc2ccc(-c3nc4cc(N)ccc4o3)cc2[nH]1	15.7
CC(C)C(NC(=O)OCc1ccccc1)C(=O)NC1CCCCC1 (stereo not drawn)	6.38
COc1cccc(C(=O)NCCS(=O)(=O)NCc2ccccn2)c1	0.974
CCc1nccc2c1[nH]c1ccccc12	-35.2
C=CCn1c(O)c(/C=C2/C=c3ccccc3=N2)c(=O)[nH]c1=S	20.7
O=C(Cn1c(=O)cnc2ccccc21)Nc1cccc(S(=O)(=O)N2CCCCC2)c1	-50.3
Oc1ccc(C2=NNC(c3ccc(O)cc3)=NN2)cc1	-18.8
N#CCCN(C(=O)COC(=O)c1nc(Cl)ccc1Cl)c1ccccc1	12.9
CCN(CC)S(=O)(=O)c1cc(C(=O)OCC(=O)Nc2c(F)cccc2F)ccc1F	-11.9
OCC1(CCOc2ccccc2)CCN(Cc2ccc(OC(F)F)cc2)CC1	-79
C=CCNC(=O)c1nc2ccccc2s1	-4.67
COc1ccc(/C=N/N=C2/NC(=O)C(c3ccccc3)(c3ccccc3)S2)cc1	13.3
COc1ccc(C(=O)NC(=S)Nc2ccc3oc(=O)ccc3c2)cc1[N+](=O)[O-]	8.84
CCc1ccccc1Oc1ccc(S(=O)(=O)N2CCN(C)CC2)cn1	-6.65
COc1ccccc1NS(=O)(=O)c1ccc(C)c(C(=O)NCc2cccnc2)c1	-17.9
COC(=O)CCN(C(=O)c1ccc2c(c1)OCO2)c1ccccn1	11.4
O=C1CCCC(O)=C1C=NCCc1ccccc1	4.42
O=C(NCc1ccco1)C1CCCN(S(=O)(=O)c2ccc(Br)cc2)C1 (stereo not drawn)	1.49
CN(C)c1nc(=S)nc(NCc2ccccc2)[nH]1	10.9
COc1cc(/C=N/NC(=O)c2sc(N)c(C#N)c2C)cc(Br)c1O	11.3
C=CCNC(=O)c1ccc(N(C)S(=O)(=O)c2ccc(OC)cc2)cc1	-57.4

Compound	hERG current change (%, negative = inhibition) at 10uM [%]
O=C(CSc1nncs1)Nc1ccc2c(c1)OCCO2	13.3
Cc1cccc(C(C)C)c1NC(=O)C(C)OC(=O)Cn1cnc2c1c(=O)n(C)c(=O)n2C (stereo not drawn)	-2.52
Cc1c(NC(=O)c2ccc(N(C)S(=O)(=O)c3ccccc3)cc2)c(=O)n(-c2ccccc2)n1C	8.24
CCOC(=O)C1CCN(C(=O)C2CCCCC2)CC1	-2.91
CC(=O)Nc1c([N+](=O)[O-])cc(C)c(Cl)c1[N+](=O)[O-]	6.22
CC1CCCCC1NC(=O)CN1CCC(NC(=O)c2cccc(F)c2)CC1 (stereo not drawn)	-11.3
CC(C(=O)NCc1ccc(Cl)cc1)n1cccc1C(=O)c1ccccc1 (stereo not drawn)	-21.4
C[C@@H]1NC(=O)c2cc([N+](=O)[O-])cc(F)c2NCCC[C@@H](C(N)=O)NC(=O)[C@H](CC(N)=O)NC1=O	30
CCOC(=O)CSc1nc2c(c(=O)[nH]c(=O)n2C)n1CCc1ccccc1	-1.16
CC(C)c1nc(SCC(=O)Nc2cccc(S(N)(=O)=O)c2)n[nH]1	8.6
c1cnc(SCCOc2ccc3c(c2)CCC3)nc1	4.62
CCOC(=O)C1CSc2[nH]c(=O)sc2C1c1ccccc1 (stereo not drawn)	-25
COc1ccc(OC)c(NC(=S)N2CCN(Cc3ccccc3)CC2)c1	11
COc1cccc(COC(=O)c2nn(-c3ccccc3)nc2N)c1	17.1
Cc1ccc2nc(CSc3nnc(-c4ccco4)o3)cc(=O)n2c1	-64.9
CCOc1ccc(NCc2cc3c(C(C)(C)C)nn(-c4ccccc4)c3[nH]c2=O)cc1	-6.53
CC1=C(C(=O)OCCOC(C)C)C(c2cccc3ccccc23)NC(=O)N1 (stereo not drawn)	-6.59
Cn1c(=O)[nH]c(=O)c2c1nc(N1CCCCCC1)n2CCCSc1nc2ccccc2o1	-38.3
COc1ccc(C(CNC(=O)C(CCSC)NC(=O)c2ccccc2Cl)N2CCCC2)cc1 (stereo not drawn)	-34.9
COC(=O)c1ccc(NC(=O)Cc2ccc(C)cc2)cc1	21.5
OC1(CC#CCN2CCCCC2)c2ccccc2-c2ccccc21	-24.1
C=C(C)C1CC=C(C)/C(=N/NC(=O)c2cccc([N+](=O)[O-])c2)C1 (stereo not drawn)	10.5
COc1ccc(C(CC(=O)O)NC(=O)c2cccs2)cc1 (stereo not drawn)	9.07

Compound	hERG current change (%, negative = inhibition) at 10uM [%]
O=c1c2ccccc2c2ccccc2c(=O)n1Cc1ccco1	3.47
Cc1noc(C)c1CSc1nc2ccccc2[nH]1	7.07
CCn1cc(C(=O)N2CCCC(N3CCN(c4cccc(C(F)(F)F)c4)CC3)C2)cn1 (stereo not drawn)	-29.2
O=C(CSc1nc2ccccc2o1)Nc1nc2ccc(Br)cc2s1	6.54
N#CCCN(CCC#N)C(=O)COc1ccc(Cl)cc1Cl	-13.6
Cc1ccc(N2CCN(S(=O)(=O)c3ccc(F)cc3)CC2)c(C)c1	9.58
Cc1nn(CC2CC2)c(=O)n1-c1ccc(C(C)C)cc1	2.14
Cc1ccc[n+](/C(=C\C(=C=[N-])C#N)C(=O)c2ccc(Cl)cc2)c1	-8.65
COc1ccc(S(=O)(=O)NC(C)C(=O)NCc2ccncc2)cc1C (stereo not drawn)	15.3
COCCn1c(=NC(=O)c2nc3ccccc3s2)sc2cc(S(C)(=O)=O)ccc21	-21
Br.c1ccc(NNC2=NCCS2)cc1	19.8
CCc1cccc(NS(=O)(=O)c2c(C)[nH]c(=O)[nH]c2=O)c1	20.8
CCN(C(=O)CN1c2ccccc2CC1C)c1c(N)n(Cc2ccccc2)c(=O)[nH]c1=O (stereo not drawn)	20.4
CCOc1[nH]n(-c2ccccc2)c(=O)c1C=NCc1ccncc1	-50
O=C1CCC(=O)N1OCCCCOc1ccccc1	-4.34
CC1(C)CC(N2CCN(Cc3ccccc3)CC2)=CC(=[N+]2CCCCC2)C1.[I-]	7.04
CCn1nnnc1SCC(=O)Nc1nc2ccc(OC)cc2s1	-0.034
COc1ccc(CC(=O)Nc2cccc(-c3nnc(-c4cccc(C)c4)o3)c2)cc1OC	11.3
CCCn1c(SCC(=O)NC2CC2)nnc1-c1ccccn1	-2.29
COc1nc(Nc2ccc([N+](=O)[O-])cc2)nc(NC2CCCCC2)n1	-1.47
COc1ccc(NC(=O)CS(=O)CC(=O)Nc2cccnc2)cc1 (stereo not drawn)	12.9
COc1ccccc1NC(=O)C1CCN(S(=O)(=O)c2ccc3c(c2)NC(=O)CO3)CC1	9.58
CCc1ccccc1NC(=S)N(Cc1cccnc1)Cc1ccco1	-18.8

Compound	hERG current change (%, negative = inhibition) at 10uM [%]
COc1cc2c(cc1OC)C(NC(=O)C(F)(F)F)CNC2=O (stereo not drawn)	16.1
CC(=O)c1c(C)[nH]c(C(=O)Nc2cccc3ccccc23)c1C	10.7
COc1cc(-c2nc3cnccn3c2Nc2ccccc2)ccc1O	-0.787
O=C1C=C(c2ccccc2)OC(c2ccccc2)O1 (stereo not drawn)	1.43
COc1cc2c(cc1OC)C[N+](C)(C)CC2.[I-]	20.1
CC(C)CC(NC(N)=O)C(=O)OCC(=O)N(Cc1ccccc1)Cc1ccccc1 (stereo not drawn)	15.6
Cc1ccc(O)c(C2=NNC(c3ccc(Cl)cc3)C2)c1 (stereo not drawn)	22.8
CC(C)CC(=O)N1CCC(O)(CS(=O)(=O)Cc2ccccc2Cl)CC1	-0.687
Cc1nc(N2CCCCCC2)c2ccccc2n1.Cl	-51.5
COc1ccc2c(c1)Cc1sc(NC(=O)c3ccccc3)nc1-2	8.04
COc1ccccc1C(=O)N/C(=C\c1cn(S(=O)(=O)N(C)C)c2ccccc12)C(=O)N1CCCC1	14.6
N#Cc1c(C(F)(F)F)cc(-c2cccs2)nc1SCc1cccnc1	5.31
Cc1cccc(OCCSc2nc3ccccc3n2CCC(=O)O)c1	6.39
CC(=O)c1ccc(N2CCN(C3CCC(C(C)(C)C)CC3)CC2)cc1 (stereo not drawn)	2.12
CCN(CC)C(=O)Cn1c(=O)oc2ccccc21	15.7
Cc1ccc(S(=O)(=O)N(CC(=O)Nc2ccc(Cl)c([N+](=O)[O-])c2)C2CCCCC2)cc1	8
O=C(NC(=S)Nc1ccccc1N1CCCC1)c1ccc(F)cc1	9.08
O=[N+]([O-])c1ccc(CN2CCN(c3ccccc3)CC2)o1	9.7
CCSCc1nnc(SCC(=O)Nc2ccc(F)cc2)n1CC	-13.7
CCOC(=O)c1cc(-c2cccs2)[nH]n1	4.38
CCOC(=O)c1cc(-c2ccccc2)n(Cc2cc(CC)no2)n1	-16.3
